Assay results: the supplement of paper PMC11417369
± gives the standard deviation of the averaged measurements. The list shows a part of the results.

tested on: PfAP2-I AP2 domain 3 (GST-tagged); experiment: gcPBM binding intensity (ln(normalized median fluorescence intensity)); higher = stronger DNA binding
In short: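 Each value is the highest Masliner-normalised natural-log median intensity across replicate spots of either orientation of a probe. The probes were primer-extended double-stranded 36-bp intergenic genomic sequences on an Agilent 4 × 180k array, alongside negative controls, exposed for 1 h to GST-tagged P. falciparum DNA-binding domains expressed in E. coli. Bound protein was picked up with Alexa488 anti-GST antibody and scanned at 488 nm.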

| Sequence | gcPBM binding intensity (ln) |
| --- | --- |
| AATGTATTCTCTCATGCACACTTTCTTTAAGGGACC [CACACA_site5245] | 8.54 ± 0.52 |
| ATATCTTATATCTTCACACATACACAATAAATACAT [CACACA_site5028] | 8.22 ± 0.59 |
| CTAAGAAGTATTTACACACCAACAAGGCGAAAAAAA [CACACA_site2945] | 7.97 ± 0.69 |
| ACTTTTATTATTTATATACACACTTGCTGAAATGTT [CACACA_site3637] | 8.29 ± 0.92 |
| AGTTATAAAATATTTGCATGTAAATATATTATCTAT [TGCATGCA_site1015] | 7.67 ± 0.53 |
| TTTTTTTTTTTTAGAGTACACACTTTTTTACATTTA [CACACA_site3836] | 8.24 ± 0.64 |
| GTTGAAAATACAGAACGTACACGTTTGCCATATTGT [XGTACX_site2254] | 7.84 ± 0.54 |
| TATGAAATGCTCCAATCACACATGAATGTAATATAT [CACACA_site5458] | 7.49 ± 0.48 |
| ATATGATTTATAAAGTGTACCTTATTATAAGAAACA [XGTACX_site7914] | 7.86 ± 0.38 |
| AAGATGAACCTTTACACATGCAACAAAAAATATACA [TGCATGCA_site166] | 7.83 ± 0.56 |
| ATCAACATTATGTTTAGTACTTAGTGAATTGTTAAT [XGTACX_site4913] | 7.7 ± 0.5 |
| ATATATATATATATATGTACATATTTACATTTTGTA [XGTACX_site3529] | 9.37 ± 0.28 |
| TATACACATTCGCGTTGTACAAAAAAAAAAAAAAAG [XGTACX_site2880] | 7.99 ± 0.22 |
| AATAAAGGAGCCTATGAACACACACCGGTACATATA [CACACA_site9352] | 7.56 ± 0.61 |
| ATAAAAAAAAGAAAAACACACACATATATATATATA [CACACA_site8243] | 9.39 ± 0.31 |
| ATAATAATAGTAATATGTACATATATATATATATAT [XGTACX_site7437] | 9.29 ± 0.3 |
| ATTTTTATTTTATATACACACAATAATACTAGAATA [CACACA_site7810] | 7.82 ± 0.49 |
| ATTTCATATGGTCAACGTACTCATGCATCCCTCCTT [XGTACX_site437] | 8.18 ± 0.98 |
| AGATATATAAAATATACACACAGTAATATTTATATA [CACACA_site6767] | 7.3 ± 0.36 |
| ATATATATCTACATATGTACATATATACATTACACA [XGTACX_site7210] | 7.9 ± 0.42 |
| TCAAAAAAGACACACCGTACATACTATTTGGACAGG [XGTACX_site7699] | 7.8 ± 0.64 |
| AATTATATTTGAAATACACACATAAAAACCATATAG [CACACA_site7598] | 7.92 ± 0.61 |

| Sequence | gcPBM binding intensity (ln) |
| --- | --- |
| TTCTAAATTAATAATACACACTTGCTAAAATCATTA [CACACA_site5733] | 7.73 ± 0.38 |
| TTTATTTTATCATTTGCACACGCACCCCCACATAAA [CACACA_site8007] | 10.4 ± 0.26 |
| ATTCTCCATGTTTGATGTACTCATATGACGACGGAG [XGTACX_site4923] | 8.08 ± 0.23 |
| TTCTTATATTGTACAGTACACACCTTTATAATGTTA [CACACA_site7953] | 8.54 ± 0.49 |
| ATATAAATAACGTGTACACACATATGTATTTATATA [CACACA_site6520] | 8.43 ± 0.56 |
| AATATTTCTATATGAACATGCAATGTATCTTTTTAT [TGCATGCA_site738] | 7.46 ± 0.56 |
| TTTTTATGATTATACTTATATAATTTCATGATTGAA [CACACA_negctrl_site228] | 7.41 ± 0.54 |
| AATACTTACCAAAATACACACACACCCAAAATATAT [CACACA_site8559] | 8.24 ± 0.44 |
| ATTCCACTGTTTTAGTGTACTGGTCGTTTTTTTTTT [XGTACX_site1738] | 7.95 ± 0.42 |
| AATTTTTTATACACAAGTACAAACGCGTAGTCACTT [XGTACX_site2458] | 7.92 ± 0.57 |
| ATTAAGTCTTATATTACACACGACATTGTAATGTAA [CACACA_site528] | 7.56 ± 0.55 |
| TCCAAAATATCCTTCACACACGAACAGTTTCATTTA [CACACA_site5511] | 7.79 ± 0.62 |
| AAAAATAAAACAATTACACACATAATTTTATTTTTA [CACACA_site928] | 7.56 ± 0.55 |
| TTTATATTAATTTGTGTAAATGCATATGATGAGCAT [XGTACX_negctrl_site254] | 7.88 ± 0.42 |
| ATATATATATATATATGTACATATAATTTTTTTTTT [XGTACX_site6948] | 9.325 ± 0.021 |
| TAAATTTTTTTTTTGATGCACTTAGTTATTATATTT | 9.535 ± 0.021 |
| ATAACAATTATTTATCTACACACTTTTATGTTATTT [CACACA_site7886] | 8.12 ± 0.81 |
| AATGGCAAAATAGGCACACACACATATACAGATATA [CACACA_site4726] | 8.04 ± 0.49 |
| ATAATAAAATAAATCACACATAATATAATGTAATAT [CACACA_site6144] | 7.54 ± 0.54 |
| ACAAAAAAATAAAATATATATATATATATAATATAT [CACACA_negctrl_site805] | 8.12 ± 0.3 |
| GAATTTTTGACGATATAGGAAATAATTATCCTGAAG [XGTACX_negctrl_site61] | 7.46 ± 0.82 |
| CTGTTAATTATATATTGTACAAAAGATATGATTATA [XGTACX_site6927] | 7.71 ± 0.39 |
